Assay results: article PMC5399293, “Hierarchical assembly of centriole subdistal appendages via centrosome binding proteins CCDC120 and CCDC68” (Nature Communications, 2017)
Results are given in words; binding and its absence hold for the method and conditions named. For some of these results: In cells and extracts the contact can be indirect. Some binding calls cover weakened binding; strength is not graded here. For some of these results: Sequences can lack the tags named with a protein.

Assays:
[1] = target: T1, CCDC120 (91–320 aa) of the GST pull-down (Supplementary Fig. 4g,h) (human) (UniProt Q96HB5); experiment: pull-down; GST pull-down (Supplementary Fig. 4g,h); which partner carried GST and where the other came from is not told
T1 sequence: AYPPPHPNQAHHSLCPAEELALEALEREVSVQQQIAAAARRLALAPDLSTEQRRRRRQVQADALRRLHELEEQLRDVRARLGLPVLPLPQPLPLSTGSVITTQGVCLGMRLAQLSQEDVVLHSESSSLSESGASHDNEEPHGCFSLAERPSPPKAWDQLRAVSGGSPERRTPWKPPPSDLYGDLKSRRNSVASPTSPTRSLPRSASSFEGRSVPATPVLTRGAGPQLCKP

[2] = target: T2, CCDC120-Flag truncate N (1–320 aa) (human) (UniProt Q96HB5); experiment: co-IP; exogenous immunoprecipitation from lysates of co-transfected HEK293T cells (50 mM HEPES, 0.1% NP-40, 250 mM NaCl, 1 mM dithiothreitol, 5 mM EDTA, 10% glycerol, pH 7.5), tag antibodies on protein G-Sepharose; immunoblot
T2 sequence: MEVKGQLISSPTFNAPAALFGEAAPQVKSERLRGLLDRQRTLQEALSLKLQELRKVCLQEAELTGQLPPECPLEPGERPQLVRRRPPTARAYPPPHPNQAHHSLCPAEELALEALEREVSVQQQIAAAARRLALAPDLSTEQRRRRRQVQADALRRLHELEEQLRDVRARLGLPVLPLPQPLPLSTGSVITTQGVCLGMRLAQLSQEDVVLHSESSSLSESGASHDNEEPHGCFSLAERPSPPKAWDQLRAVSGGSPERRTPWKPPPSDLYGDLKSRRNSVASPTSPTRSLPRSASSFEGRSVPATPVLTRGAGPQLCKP

[3] = target: T3, CCDC120-Flag truncate N2 (91–320 aa) (human) (UniProt Q96HB5); experiment: as above
T3 sequence: T1 sequence

[4] = target: T4, Coiled-coil domain containing 120 (CCDC120), endogenous (human (endogenous in HeLa)) (UniProt Q96HB5); experiment: co-IP; endogenous immunoprecipitation from HeLa lysates (50 mM HEPES, 150 mM NaCl, 1 mM EDTA, 0.5% Triton X-100, pH 7.4) with anti-CCDC120 or anti-CCDC68 antibody on protein A-Sepharose; immunoblot
T4 sequence: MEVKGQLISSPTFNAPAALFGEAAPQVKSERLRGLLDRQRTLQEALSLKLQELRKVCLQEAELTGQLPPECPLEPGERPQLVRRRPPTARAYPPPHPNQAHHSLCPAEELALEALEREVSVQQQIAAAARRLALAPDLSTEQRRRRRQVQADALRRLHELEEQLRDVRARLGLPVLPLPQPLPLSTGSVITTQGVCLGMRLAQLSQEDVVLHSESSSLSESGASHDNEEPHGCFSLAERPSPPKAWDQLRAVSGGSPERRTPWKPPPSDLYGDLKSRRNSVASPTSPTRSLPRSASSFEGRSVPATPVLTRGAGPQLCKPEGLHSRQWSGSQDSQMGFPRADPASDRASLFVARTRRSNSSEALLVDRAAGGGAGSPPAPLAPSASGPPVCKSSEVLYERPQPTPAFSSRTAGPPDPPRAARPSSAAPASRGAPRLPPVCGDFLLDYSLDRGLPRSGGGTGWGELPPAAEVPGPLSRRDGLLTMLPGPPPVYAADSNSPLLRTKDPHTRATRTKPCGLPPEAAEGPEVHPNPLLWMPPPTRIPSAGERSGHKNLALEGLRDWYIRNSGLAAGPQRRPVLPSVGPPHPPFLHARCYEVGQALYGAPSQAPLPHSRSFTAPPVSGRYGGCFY

[5] = target: T5, CCDC120 (91–320 aa), yeast two-hybrid bait (human) (UniProt Q96HB5); experiment: two-hybrid; Matchmaker system, bait pGBKT7 and prey pGADT7 in yeast AH109, growth on quadruple (Trp-, Leu-, His-, Ade-) selective medium, 30 °C
T5 sequence: T1 sequence

[6] = target: T6, CCDC120-Flag, full length (human) (UniProt Q96HB5); experiment: co-IP; exogenous immunoprecipitation from lysates of co-transfected HEK293T cells (50 mM HEPES, 0.1% NP-40, 250 mM NaCl, 1 mM dithiothreitol, 5 mM EDTA, 10% glycerol, pH 7.5), tag antibodies on protein G-Sepharose; immunoblot
T6 sequence: T4 sequence

[7] = target: T7, CCDC120, yeast two-hybrid fusion (Supplementary Fig. 2f) (human) (UniProt Q96HB5); experiment: two-hybrid; Matchmaker system, bait pGBKT7 and prey pGADT7 in yeast AH109, growth on quadruple (Trp-, Leu-, His-, Ade-) selective medium, 30 °C
T7 sequence: T4 sequence

In the case of “hNinein of the GST pull-down (Supplementary Fig. 4g,h) (from UniProt Q8N4C6 1-2090)”, the binding [1] is reported as “binds”.

In the case of “hNinein-GFP, full length (from UniProt Q8N4C6 1-2090)”, the binding [2] is reported as “binds” and the binding [3] is reported as “binds”.

“human Ninein (hNinein), endogenous (from UniProt Q8N4C6 1-2090)” was tested, and the binding [4] was “binds”.

B1: hNinein N terminus (1–480 aa), yeast two-hybrid prey (domain or fragment, UniProt Q8N4C6 1-480)
chain: MDEVEQDQHEARLKELFDSFDTTGTGSLGQEELTDLCHMLSLEEVAPVLQQTLLQDNLLGRVHFDQFKEALILILSRTLSNEEHFQEPDCSLEAQPKYVRGGKRYGRRSLPEFQESVEEFPEVTVIEPLDEEARPSHIPAGDCSEHWKTQRSEEYEAEGQLRFWNPDDLNASQSGSSPPQDWIEEKLQEVCEDLGITRDGHLNRKKLVSICEQYGLQNVDGEMLEEVFHNLDPDGTMSVEDFFYGLFKNGKSLTPSASTPYRQLKRHLSMQSFDESGRRTTTSSAMTSTIGFRVFSCLDDGMGHASVERILDTWQEEGIENSQEILKALDFSLDGNINLTELTLALENELLVTKNSIHQAALASFKAEIRHLLERVDQVVREKEKLRSDLDKAEKLKSLMASEVDDHHAAIERRNEYNLRKLDEEYKERIAALKNELRKEREQILQQAGKQRLELEQEIEKAKTEENYIRDRLALSLKEN
B1 was tested, and the binding [5] was “binds”.

B2: hNinein-GFP truncate N (1–480 aa) (domain or fragment, UniProt Q8N4C6 1-480)
chain: B1 chain
For B2, the binding [6] was “binds”.

B3: ODF2, yeast two-hybrid fusion (Supplementary Fig. 2f) (protein, UniProt Q5BJF6 1-829)
chain: MSASSSGGSPRFPSCGKNGVTSLTQKKVLRAPCGAPSVTVTKSHKRGMKGDTVNVRRSVRVKTKVPWMPPGKSSARPVGCKWENPPHCLEITPPSSEKLVSVMRLSDLSTEDDDSGHCKMNRYDKKIDSLMNAVGCLKSEVKMQKGERQMAKRFLEERKEELEEVAHELAETEHENTVLRHNIERMKEEKDFTILQKKHLQQEKECLMSKLVEAEMDGAAAAKQVMALKDTIGKLKTEKQMTCTDINTLTRQKELLLQKLSTFEETNRTLRDLLREQHCKEDSERLMEQQGALLKRLAEADSEKARLLLLLQDKDKEVEELLQEIQCEKAQAKTASELSKSMESMRGHLQAQLRSKEAENSRLCMQIKNLERSGNQHKAEVEAIMEQLKELKQKGDRDKESLKKAIRAQKERAEKSEEYAEQLHVQLADKDLYVAEALSTLESWRSRYNQVVKEKGDLELEIIVLNDRVTDLVNQQQTLEEKMREDRDSLVERLHRQTAEYSAFKLENERLKASFAPMEDKLNQAHLEVQQLKASVKNYEGMIDNYKSQVMKTRLEADEVAAQLERCDKENKILKDEMNKEIEAARRQFQSQLADLQQLPDILKITEAKLAECQDQLQGYERKNIDLTAIISDLRSRIEHQGDKLEMAREKHQASQKENKQLSLKVDELERKLEATSAQNIEFLQVIAKREEAIHQSQLRLEEKTRECGTLARQLESAIEDARRQVEQTKEHALSKERAAQNKILDLETQLSRTKTELSQLRRSRDDADRRYQSRLQDLKDRLEQSESTNRSMQNYVQFLKSSYANVFGDGPYSTFLTSSPIRSRSPPA
B3 was tested, and the binding [7] was “no binding”.
